Results from PubChem BioAssay AID1477 (National Center for Advancing Translational Sciences (NCATS), 2009).
Among all 230,000 compounds or so, fewer than 10 were called active. Inconclusive results, whose numbers are uncertain, are shown with a selection of clear calls. Calls follow the shape of the dose curve; as a rule, active = well fitted curve in the direction sought with a large enough effect; inconclusive = small, poorly fitted or top-dose-only effect, or effect the other way, or another doubt; inactive = no such curve, though single readings can be large or run the other way. Potencies of inconclusive entries are left out as doubtful fits.

Target: Runt-related transcription factor 1 (Homo sapiens) + Core-binding factor subunit beta (Homo sapiens) (UniProt Q01196+Q13951)
UniProt Q01196, sequence (Q01196 whole entry, looked up): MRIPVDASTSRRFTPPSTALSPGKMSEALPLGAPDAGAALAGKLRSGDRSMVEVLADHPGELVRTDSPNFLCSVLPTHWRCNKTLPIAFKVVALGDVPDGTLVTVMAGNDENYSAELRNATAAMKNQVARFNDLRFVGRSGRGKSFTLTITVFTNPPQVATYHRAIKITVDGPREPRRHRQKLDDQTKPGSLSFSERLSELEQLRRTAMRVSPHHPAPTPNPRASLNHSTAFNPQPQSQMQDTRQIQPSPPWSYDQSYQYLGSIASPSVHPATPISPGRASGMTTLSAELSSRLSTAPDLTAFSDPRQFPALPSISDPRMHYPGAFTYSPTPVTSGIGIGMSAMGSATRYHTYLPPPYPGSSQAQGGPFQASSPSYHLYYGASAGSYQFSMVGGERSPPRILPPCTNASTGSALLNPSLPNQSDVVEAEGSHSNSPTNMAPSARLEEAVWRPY
UniProt Q01196, sequence (Q13951 whole entry, looked up): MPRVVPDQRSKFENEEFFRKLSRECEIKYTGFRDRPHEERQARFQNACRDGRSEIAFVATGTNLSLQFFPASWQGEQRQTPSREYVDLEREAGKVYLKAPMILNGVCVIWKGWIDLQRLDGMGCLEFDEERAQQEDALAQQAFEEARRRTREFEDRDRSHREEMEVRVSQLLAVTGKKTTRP
Experiment: qHTS Assay for Compounds Blocking the Interaction Between CBF-beta and RUNX1 for the Treatment of Acute Myeloid Leukemia; as to activity, negative = inhibition: % of control where 0% means no effect
Conditions: AlphaScreen CBFb-His/RUNX1-biotin binding, biochemical; activity, negative = inhibition: at 59.8 µM (top of the series) unless noted
How it was run: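 Room-temperature protein-protein interaction test with 30 nM each of His-tagged CBF-beta and biotinylated RUNX1, 15 min with compound, then 90 min with nickel plus streptavidin beads. Signal read in AlphaScreen mode.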

SMILES	Potency	activity, negative = inhibition
O=C(C(c1ccccc1)c1ccccc1)N1CCCc2ccccc21	inconclusive [activator, partial curve]	–
O=C1NN(c2ccccc2)C(=O)/C1=C/c1ccc(-c2ccc(Cl)c(C(=O)O)c2)o1	inconclusive [inhibitor, single point]	–
CCOC(=O)c1sc2nccc(N(C)C)c2c1N=CNOCc1ccccc1	inconclusive [activator, partial curve]	–
O=C(/C(=N\Nc1ccc(Br)cc1)Sc1nnnn1-c1ccccc1)c1ccccc1	–	inactive: 2.2%
CC(C)(O)C#Cc1ccc(CN2CCN(CCc3ccccc3)C(CCO)C2)s1 (configuration not stated)	inconclusive [activator, single point]	–
Cc1ccc(NC(=O)CCCc2nc3ccccc3s2)c(O)c1	–	inactive: 3.65%
COc1ccc(/C=N/NC(=O)c2cccnc2)cc1CN1CCCc2ccccc21	inconclusive [inhibitor, single point]	–
O=C(N/N=C/c1cc([N+](=O)[O-])ccc1O)c1ccc2c(c1)OCCO2	inconclusive [inhibitor, partial curve]	–
Cc1ccc(-n2c(SCC(=O)N3Cc4ccccc4CC3C(=O)O)nnc2-c2cccnc2)c(C)c1 (configuration not stated)	inconclusive [inhibitor, single point]	–
CCOc1ccc(NC(=S)N(Cc2ccc(N(C)C)cc2)Cc2ccco2)cc1	inconclusive [inhibitor, single point]	–
Cc1noc(C)c1-c1ccc2ncnc(NCc3cccc(-c4ccccc4)c3)c2c1	–	inactive: 7.91%
CCOC(=O)c1ccc(-n2c(O)c(/C=N/NC(=O)C3COc4ccccc4O3)c3ccccc3c2=O)cc1 (configuration not stated)	inconclusive [inhibitor, full curve]	–
O=C(/C=C/c1cccs1)NC(=S)NNC(=O)c1ccccc1O	inconclusive [inhibitor, partial curve]	–
CCN1CCN(c2oc(COc3ccc(-c4ccccc4)cc3)nc2C#N)CC1	inconclusive [inhibitor, single point]	–
O=C(NCc1ccco1)c1cccnc1Cl	–	inactive: -9.2%
Cc1cccc(NC(=O)CSC2=NN3CCCC(=O)N=C3S2)c1C	inconclusive [inhibitor, single point]	–
Brc1ccc2c(c1)C(c1ccc(N3CCOCC3)cc1)=NNC(c1cccs1)=N2	inconclusive [inhibitor, single point]	–
Cn1c(=O)c(C#N)c(-c2ccc(F)cc2)c2cc(C(=O)c3cc(Cl)cc(Cl)c3O)cnc21	inconclusive [inhibitor, single point]	–
COc1ccc(-n2cc(C(=O)O)c(=O)cc2C)cc1	–	inactive: -5.79%
Cn1nc(-c2ccccc2)c(CSc2ccccc2Cl)c1Cl	inconclusive [activator, single point]	–
COc1ccc(OC)c(C2=Nn3c(nnc3-c3ccc(OC)c(OC)c3)SC2)c1	–	inactive: -8.85%

SMILES	Potency	activity, negative = inhibition
Cc1ccccc1-n1nnnc1SCc1csc(-c2ccccc2)n1	–	inactive: 28.1%
O=C(COc1ccc(Cl)cc1)N1CCN(c2ccc([N+](=O)[O-])c(N3CCCCC3)c2)CC1	inconclusive [inhibitor, partial curve]	–
N#Cc1cn(CCCOc2ccccc2)c2ccccc12	inconclusive [activator, single point]	–
NS(=O)(=O)c1ccc(N2N=C(c3ccc(Br)cc3)CC2c2ccc(F)cc2)cc1 (configuration not stated)	inconclusive [activator, partial curve]	–
CC1CCN(C(=O)CCc2ccc(Oc3cc([N+](=O)[O-])cc([N+](=O)[O-])c3)cc2)CC1	inconclusive [inhibitor, single point]	–
CCCCNC(=S)N=Nc1c(O)n(Cc2ccccc2)c2ccccc12	inconclusive [inhibitor, partial curve]	–
O=C(CCN1CCN(C/C=C/c2ccccc2)CC1)Nc1ccccc1F	inconclusive [inhibitor, single point]	–
O=C(O)c1ccc(NS(=O)(=O)c2ccc3c(c2)C2C=CCC2C(c2ccccc2F)N3)cc1 (configuration not stated)	inconclusive [inhibitor, single point]	–
C[C@H](C(=O)O)c1cccc(C(=O)c2ccccc2)c1	inconclusive [inhibitor, full curve]	–
Nc1c(C(=O)NCc2ccco2)c2nc3ccccc3nc2n1CCc1ccccc1	inconclusive [activator, full curve]	–
O=C(N/N=C/c1ccco1)C1COc2ccccc2O1 (configuration not stated)	–	inactive: 0.425%
COc1ccc(NC(=O)c2c(Nc3ccccc3)sc(C(=O)c3ccc(F)cc3)c2N)cc1	inconclusive [inhibitor, single point]	–
CC(C)c1ccc(Nc2nnc(SCC(=O)Nc3ncc(S(=O)(=O)c4ccc([N+](=O)[O-])cc4)s3)s2)cc1	–	inactive: 6.67%
CSc1ncccc1C(=O)OCc1ccc(Br)cc1	inconclusive [activator, single point]	–
Cc1ccnc(SCc2cc(=O)c(OC(=O)c3ccc(Cl)c([N+](=O)[O-])c3)co2)n1	inconclusive [inhibitor, single point]	–
COC(=O)c1ccc(C(NC(=O)OCc2ccccc2)/C(=C/[C@@H](C)C(=O)NCCc2c[nH]c3ccccc23)c2cccnc2)cc1 (some centres not stated)	–	inactive: -11.4%
C=C1C(=O)O[C@@H]2[C@H]1[C@@H](OC(=O)/C(C)=C/C)C/C(C)=C\C(=O)/C=C(\C)[C@@H]2O	–	inactive: 2.03%
Cc1ccc(S(=O)(=O)Nc2ccc(O)c3ncccc23)cc1	inconclusive [inhibitor, partial curve]	–
CC1(C)[C@H](C(=O)O[C@H](C#N)c2cccc(Oc3ccccc3)c2)[C@@H]1C=C(Br)Br	inconclusive [activator, partial curve]	–
COc1cc(C)nc(N(Cc2ccccc2)S(=O)(=O)c2ccccc2)n1	–	inactive: 19.9%
Cc1nc(N2CCC(C(N)=O)CC2)c2nnn(Cc3ccccc3)c2n1	–	inactive: -3.28%
